# Measured values: PubChem BioAssay AID485281 (National Center for Advancing Translational Sciences (NCATS), 2010)
# Screen size: about 350,000 compounds; about 260 (0.074%) were called active. Inconclusive means that the source gave no clear call. Such entries were picked first, then a sample of the others. Calls come from the whole dose curve; as a rule, active = well fitted inhibition curve with a large enough effect; inconclusive = small, poorly fitted or top-dose-only effect; inactive = no such curve, though single readings can be large or run the other way. Potencies of inconclusive entries are doubtful fits and often do not repeat.
# Target: Ferritin light chain (Equus caballus) (UniProt P02791)
# Experiment: qHTS Assay for Identification of Novel General Anesthetics; note: nearly all actives have a fitted effect of over 20% in size
# Conditions: apoferritin/1-aminoanthracene competitive binding, fluorescence; activity change, negative = displacement: at 77.5 µM (top of the series)
# How it was run: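 Horse-spleen apoferritin (10 uM) was mixed with 50% saturated 1-aminoanthracene in PBS, exposed to compounds for 10 min at room temperature, and read for fluorescence (ex 380 nm, em 535 nm). Competitive displacement was fitted with a four-parameter Hill equation.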
# % is set by controls: 0 for no effect and ±100 for the full control effect; potency is the fitted concentration of half-maximal effect; tags give direction and shape of the fitted curve.
# Chain of UniProt P02791 (P02791 whole entry, looked up): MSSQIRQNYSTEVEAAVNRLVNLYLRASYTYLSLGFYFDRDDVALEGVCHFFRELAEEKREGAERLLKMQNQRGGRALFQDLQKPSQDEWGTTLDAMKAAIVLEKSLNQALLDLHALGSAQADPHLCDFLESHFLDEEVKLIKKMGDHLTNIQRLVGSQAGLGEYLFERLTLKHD
SMILES,"activity change, negative = displacement",Potency
O=C(CNc1cccc2ccccc12)c1ccc([N+](=O)[O-])cc1,inactive: -8.01%,
Cc1c(NC(=O)c2cc(-c3cccs3)on2)c(=O)n(-c2ccccc2)n1C,inactive: -11.8%,
CC(=O)c1ccc(-c2ccc(C(=O)N3CCCc4ccccc43)o2)cc1,,"inconclusive: 35.5 µM [inhibitor, partial curve]"
COc1ccc(CNc2oc(/C=C/c3cccc(OC)c3)nc2C#N)cc1,inactive: 264%,
Cc1ccc2[nH]c(-c3ccccc3)cc(=O)c2c1,inactive: -5.03%,
COC(=O)C1=C(C)NC2=C(C(=O)CCC2)C1c1cn(Cc2ccc(Br)cc2)nc1-c1ccccc1 (stereo not given),inactive: 226%,
Cc1nn(Cc2ccc(Cl)c(Cl)c2)c(C)c1NC(=O)c1cc(-c2ccco2)on1,,"inconclusive: 35.5 µM [inhibitor, partial curve]"
O=C(C1CCN(S(=O)(=O)c2cccc3nsnc23)CC1)N1CC=C(c2ccccc2)CC1,,"inconclusive: 12.6 µM [inhibitor, full curve, poor fit]"
Cc1nn(CC(=O)N2CCN(c3cccc(Cl)c3)CC2)c(=O)c2c1sc1ccccc12,inactive: -8.75%,
CCc1ccc(-n2nc(C)c3c(C(=O)N4CCN(c5cccc(Cl)c5)CC4)cc(C)nc32)cc1,,"inconclusive: 1 µM [inhibitor, full curve]"
CCOc1cc(C(=O)OCc2cc(=O)n3nc(C4CC4)sc3n2)cc(OCC)c1OCC,inactive: -5.53%,
COc1cc(OC)c(NC(=O)NCc2cccn2Cc2ccccc2)cc1Cl,inactive: 25.9%,
CC(C)CC(NC(=O)C1CCCCC1)C(=O)N1CCN(c2ccccn2)CC1 (stereo not given),inactive: -7.66%,
C/C(=N\Nc1ccc([N+](=O)[O-])cc1)c1ccc(O)cc1,,"inconclusive: 15.8 µM [inhibitor, partial curve]"
Cc1ccc2nc(SCC(=O)Nc3ccc4c(c3)CCC4)[nH]c2c1,,"inconclusive: 50.1 µM [inhibitor, single point]"
COC(=O)c1cccc(NC(=S)NCc2ccc(Cl)cc2)c1,inactive: -10.9%,
COc1ccccc1NC(=S)NCCC(c1ccccc1)c1ccccc1,inactive: 71.1%,
CC(C)(C)C(=O)Nc1ccc(C(=O)N/N=C/c2ccccc2OC(=O)c2ccccc2)cc1,,"inconclusive: 3.55 µM [inhibitor, full curve]"
Cc1ccc(F)cc1NC(=O)CCSc1nc(-c2ccco2)cc(C(F)(F)F)n1,,"inconclusive: 35.5 µM [inhibitor, partial curve]"
Cc1ccc(C(=O)Nc2nc3c(s2)CCCC3)o1,inactive: -14.3%,
CC1=C(C(=O)N2CCOCC2)C(c2ccccc2F)C2=C(CC(C)(C)CC2=O)N1 (stereo not given),inactive: 153%,
CC1/C(=C\c2ccc(Cl)cc2)C(=O)C2CC1C2(C)C (stereo not given),,"inconclusive: 28.2 µM [inhibitor, partial curve]"
Cc1ccc(NCCC(=O)c2cccs2)cc1,,"inconclusive: 25.1 µM [inhibitor, partial curve]"

SMILES,"activity change, negative = displacement",Potency
CCOc1ccccc1Nc1nnc(Cc2ccccc2Cl)c(=O)[nH]1,,"inconclusive: 31.6 µM [inhibitor, partial curve]"
Clc1ccc(CNc2ccc(CNc3ncn[nH]3)cc2)cc1,,"inconclusive: 50.1 µM [inhibitor, single point]"
Cc1ccccc1-c1nc(CS(=O)(=O)CC(=O)NCc2ccc(F)cc2)c(C)o1,,"inconclusive: 14.1 µM [inhibitor, partial curve]"
O=C(O)c1sccc1S(=O)(=O)N1CCN(c2ccc(C(F)(F)F)cn2)CC1,inactive: -0.36%,
O=C(NCc1cccnc1)C1CCN(C(=O)c2ccc(Cl)cc2Cl)CC1,inactive: -10.5%,
O=C(COc1cccc(Br)c1)N/N=C/C(=O)c1ccccc1,,"inconclusive: 28.2 µM [inhibitor, partial curve]"
CSc1ncccc1C(=O)OCc1ccccc1F,,"inconclusive: 31.6 µM [inhibitor, partial curve]"
O=C(Cn1nnc2c(cnn2-c2ccccc2)c1=O)N1CCN(c2ccccc2F)CC1,,"inconclusive: 25.1 µM [inhibitor, partial curve]"
CCCCCCCCCc1nc2sc3c(c2c(=O)n1NC(=O)c1ccccc1[N+](=O)[O-])CC(C)(C)OC3,,"inconclusive: 14.1 µM [inhibitor, partial curve]"
O=C(c1ccccc1)c1cc2ccccc2o1,,"inconclusive: 39.8 µM [inhibitor, single point]"
Cc1ccc(S(=O)(=O)NCCC(=O)NCCSc2ccc(Br)cc2)cc1,,"inconclusive: 20 µM [inhibitor, partial curve]"
Cc1cc(C)cc(-n2ccnc(NCc3ccc(F)cc3)c2=O)c1,,"inconclusive: 50.1 µM [inhibitor, single point]"
COc1ccc(N2CCN(C(CNC(=O)C(=O)NCc3ccc4c(c3)OCO4)c3ccco3)CC2)cc1 (stereo not given),,"inconclusive: 25.1 µM [inhibitor, partial curve]"
COc1cc(C(C(=O)NC(C)(C)C)N(C(=O)CNC(=O)c2cccs2)c2ccc(C(C)C)cc2)cc(OC)c1OC (stereo not given),,"inconclusive: 11.2 µM [inhibitor, partial curve]"
CC(=O)Nc1ccc(NC(=O)C/C(C)=N/NC(=O)C(=O)Nc2ccc(C)c(Cl)c2)cc1,inactive: -13.8%,
CN(Cc1ccccc1)C(=S)NC(=O)C1CCCCC1,,"inconclusive: 14.1 µM [inhibitor, partial curve]"
O=C(CSc1nnc(COc2ccccc2)o1)c1ccccc1,,"inconclusive: 11.2 µM [inhibitor, partial curve]"
O=[N+]([O-])/C(=C\Nc1ccccc1Cl)S(=O)(=O)c1ccccc1,inactive: -11.3%,
COc1ccc(C2=NC(C)(C)N(CC(=O)Nc3cc(OC)cc(OC)c3)C2=O)cc1,,"inconclusive: 7.94 µM [inhibitor, full curve]"
C[N+](C)(C)CCC(=O)c1cccc2ccccc12,,"inconclusive: 50.1 µM [inhibitor, single point]"
CN(C)CCCN(C(=O)c1ccc(S(=O)(=O)N2CCc3ccccc3C2)cc1)c1nc2ccc(F)cc2s1,,"inconclusive: 17.8 µM [inhibitor, partial curve]"
CN(C)/C=C/C(=O)Oc1ccc(Cl)cc1Cl,,"inconclusive: 25.1 µM [inhibitor, partial curve]"
